In all, about 310,000 compounds went through this assay and about 2,200 (0.71%) showed an effect of 50% or more. The effect is printed as a negative number. The list shows a part of the results.
biological target: human ether-à-go-go-related gene (hERG) potassium channel (human, UniProt Q12809); assay: primary screen, population patch clamp on CHO cells stably expressing hERG
Sequence (Q12809 whole entry, looked up): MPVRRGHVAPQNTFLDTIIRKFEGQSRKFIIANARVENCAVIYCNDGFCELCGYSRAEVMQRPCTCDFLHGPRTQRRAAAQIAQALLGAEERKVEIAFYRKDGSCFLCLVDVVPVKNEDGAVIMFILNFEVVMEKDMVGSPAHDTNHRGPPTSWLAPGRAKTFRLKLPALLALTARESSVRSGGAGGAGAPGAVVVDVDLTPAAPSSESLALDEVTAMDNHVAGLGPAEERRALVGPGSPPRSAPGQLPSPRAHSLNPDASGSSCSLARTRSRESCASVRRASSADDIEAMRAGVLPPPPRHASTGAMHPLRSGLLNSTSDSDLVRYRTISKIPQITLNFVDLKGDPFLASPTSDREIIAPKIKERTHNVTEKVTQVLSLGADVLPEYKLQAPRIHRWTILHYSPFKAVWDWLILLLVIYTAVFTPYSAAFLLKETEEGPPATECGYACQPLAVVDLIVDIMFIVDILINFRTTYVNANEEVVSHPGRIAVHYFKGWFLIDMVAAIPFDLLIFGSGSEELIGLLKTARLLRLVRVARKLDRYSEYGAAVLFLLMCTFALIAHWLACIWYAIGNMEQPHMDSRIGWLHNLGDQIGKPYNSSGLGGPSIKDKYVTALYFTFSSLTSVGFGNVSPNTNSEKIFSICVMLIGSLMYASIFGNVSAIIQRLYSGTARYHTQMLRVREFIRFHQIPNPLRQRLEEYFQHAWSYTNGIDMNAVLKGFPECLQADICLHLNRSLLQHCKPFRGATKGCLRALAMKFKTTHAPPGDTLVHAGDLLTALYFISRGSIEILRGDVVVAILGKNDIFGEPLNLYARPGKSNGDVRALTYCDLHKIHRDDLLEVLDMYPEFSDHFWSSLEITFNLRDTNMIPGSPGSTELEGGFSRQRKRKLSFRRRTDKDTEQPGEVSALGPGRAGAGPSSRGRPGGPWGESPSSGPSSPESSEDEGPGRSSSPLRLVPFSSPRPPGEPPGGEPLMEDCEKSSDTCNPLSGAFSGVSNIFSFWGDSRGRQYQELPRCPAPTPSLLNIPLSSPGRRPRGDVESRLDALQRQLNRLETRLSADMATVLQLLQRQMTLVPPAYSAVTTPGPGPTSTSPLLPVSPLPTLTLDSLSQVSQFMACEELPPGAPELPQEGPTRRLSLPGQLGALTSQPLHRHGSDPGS

Point of comparison: O=C1N(O)C2(C=CCCC2)/C(=N\O)C12CCCCC2 (stereo not drawn), “hERG current change (%, negative = inhibition) at 1uM” value 6.27%. Against it:
- N#CC(c1ccccc1)c1ccc(C(=O)c2ccc(F)cc2)cc1 (stereo not drawn) — lower, 1.86%
- Cc1ccc(C)c(-c2cc(C(=O)NNC(=S)NCC(C)C)c3ccccc3n2)c1 — lower, -10.6%
- Cc1cc(-c2nsc(=O)o2)c(S(C)(=O)=O)s1 — lower, 4.62%
- O=[N+]([O-])c1cccc(-c2cc(-c3cc(Br)ccc3O)[nH]n2)c1 — higher, 19.2%
- Cc1ccccc1NC(=S)/C(=C(\[O-])c1cc(C)n(Cc2ccccc2Cl)c1C)[n+]1ccccc1 — higher, 15.2%
- COc1cc2cccc(OC)c(=O)c2c(OC)c1OC — higher, 14.3%
- CCC(C)(C)NC(=O)C(c1ccc(C)o1)N(C(=O)c1csnn1)c1cccc(F)c1 (stereo not drawn) — higher, 7.95%
- COc1cc(OC)c(C2SCCN2S(=O)(=O)c2ccc(F)cc2)cc1OC (stereo not drawn) — higher, 17.7%
- C=CCN(CC=C)C(=O)CN1C(=O)NC(Cc2c[nH]c3ccccc23)C1=O (stereo not drawn) — higher, 14.1%
- CCOC(=O)C1=C(C)C(c2ccccc2O)NC(=O)N1 (stereo not drawn) — higher, 10.8%
- CCc1ccc(CN(C)C(=O)CCc2nnc(COc3ccccc3)o2)cc1 — higher, 14.7%
- Cc1ccc(Nc2cc(=O)n(C3CCCCC3)c(=O)[nH]2)cc1C — higher, 16.1%
- COC(=O)C1=C(c2ccccc2OCc2ccccc2)C[C@@H]2CC[C@H]1N2C(=O)NCc1ccc(F)cc1 — higher, 17.6%
- CCOC(=O)c1c(-c2ccc(C)cc2)csc1NC(=O)C1CCCO1 (stereo not drawn) — higher, 7.2%
- C=CCn1c(O)c(/C=C2/C=CC=N2)c(=O)[nH]c1=O — higher, 17.3%
- COC(=O)CNC(=O)C1CC(=O)N(CCc2ccc(F)cc2)C1 (stereo not drawn) — higher, 9.5%
- CCOC(=O)c1cnn(-c2ccccc2)c1-n1cccc1C(=O)C(=O)Nc1ccc(F)cc1 — higher, 8.92%
- Cc1ccc(-c2c(=O)n(O)c3ccccc3[n+]2[O-])cc1 — higher, 9.77%
- CCc1cc(-c2n[nH]c(=S)n2-c2cccc(C)c2)cs1 — lower, 6.21%
- CCOc1cc(CNC(C)(C)C)ccc1OCC(=O)Nc1cccc(C(F)(F)F)c1.Cl — lower, -0.133%
- Cn1c(N)c(C(=O)CSc2nnc(-c3ccccc3F)n2C2CC2)c(=O)n(C)c1=O — lower, 6.17%
- Cc1cccc(N(CC(=O)NCCSc2nc3ccccc3s2)S(=O)(=O)c2ccccc2)c1 — higher, 10.8%
- CNc1nc(OCC#N)nc(N2CCCCC2)n1 — higher, 9.08%
- Cl.NC(=O)CSc1nnc([C@@H](N)Cc2c[nH]c3ccccc23)o1 — lower, 1.81%
- Nc1nc(-c2cccnc2)nc(N2CCCCC2)n1 — lower, -6.93%
- C=CCOC(=O)COc1ccc2c(C)c(C)c(=O)oc2c1C — lower, 5.32%
- Cc1nn(C(C)C(=O)N2CCCCC2)c(=O)c2c1sc1ccccc12 (stereo not drawn) — higher, 23.8%
- O=C(CCN1C(=O)c2cccc3cccc(c23)C1=O)N1CCN(c2ccccc2F)CC1 — lower, 5.92%
- CC(=O)c1ccc(OCC(=O)Nc2ccccc2N2CCCC2)cc1 — lower, 3.63%
- Cn1c(/C(C#N)=C2/CCCCCN2)nc2ccccc21 — lower, 5.61%
- O=C(NCCc1ccccc1)C1CCCN(c2ncnc3c2nc2n3CCCCC2)C1 (stereo not drawn) — lower, -23.8%
- O=C(Nc1ccc2ccccc2c1)c1cn(-c2ccccc2)nc1-c1cccs1 — lower, -1.2%
- O=C(CN(c1cccc(C(F)(F)F)c1)S(=O)(=O)c1ccccc1)N1CCOCC1 — lower, -10.2%
- CC(=O)c1cc(C#N)c(SCC(=O)C(C)(C)C)nc1C — lower, -13.5%
- [N-]=[N+]=NCCN1CCC(O)CCC1=O (stereo not drawn) — higher, 6.59%
- O=C(NCc1csc2ccccc12)Nc1cc(Cl)cc(Cl)c1 — higher, 9.05%
- CCc1c(C)nc2c(-c3ccccc3OC)c(C)[nH]n2c1=O — higher, 16.6%
- O=C1[C@@H]2[C@H](C(=O)N1Cc1ccco1)[C@H]1C=C[C@@H]2C1 — higher, 9.41%
- CC(C)CN(/C=N/c1sc2c(c1C#N)CCCCC2)CC(C)C — higher, 16.3%
- CN1C/C(=N\S(=O)(=O)c2ccccc2)N(C)C1=O — higher, 13%
- NC(=O)COC(=O)c1ccccc1OCc1ccccc1Cl — higher, 8.38%
- O=C(CCS(=O)(=O)c1ccc(Br)s1)NCc1ccccc1 — higher, 16.7%
- O=C(NCCCN1CCOCC1)NC12CC3CC(CC(C3)C1)C2 — higher, 7.46%
- COc1ccc([C@@H]2CC=C(C(=O)O)[C@H](c3ccccc3F)N2S(=O)(=O)c2ccc(C)cc2)cc1OC — higher, 16%
- CCOc1ccc(OCCC(=O)OCC(=O)NC2CCCCC2)cc1 — higher, 13.2%
- O=C(NC1CC1)C1=C[C@H](c2csc3ccccc23)C[C@H](OCc2ccc(CO)cc2)O1 — higher, 8.98%
- O=C(COc1ccc(Br)cc1)c1ccc2c(c1)CCCC2 — lower, 0.109%
- COCC(C)n1c(C)cc(C(=O)CSc2cc(C)c3ccccc3n2)c1C (stereo not drawn) — higher, 12.7%
- COC(=O)C1=C(C)OC(N)=C(C#N)C1c1cccnc1 (stereo not drawn) — higher, 11.5%
- Cn1cc(S(=O)(=O)N2CCc3ccccc32)cc1C(=O)Nc1ccc(Cl)cc1 — higher, 10.6%
- Cc1cccc(C(=O)OCC(=O)N2CCCCCC2)c1O — higher, 9.23%
- O=S(=O)(c1ccc2c(c1)CCN2)N1CCCC1 — lower, 4.9%
- O=C(Nc1ccc(N2CCN(c3ccc(C(F)(F)F)cn3)CC2)nc1)c1cccs1 — higher, 13.4%
- COc1ccc(OCC(O)CN(CCO)CC(O)Cn2ccc3ccccc32)cc1 (stereo not drawn) — higher, 9.66%
- CC1(C)CC2CC(C)(CN2C(=O)c2cc(-c3ccc(F)cc3)on2)C1 (stereo not drawn) — higher, 11.5%
- CN(C)S(=O)(=O)c1ccc(C(=O)Nc2ccc(S(=O)(=O)NC3=NCCCCC3)cc2)cc1 — lower, -2.57%
- O=C(COC(=O)c1n[nH]c(=O)c2ccccc12)c1ccc(Cl)cc1 — higher, 14.7%
- COC(=O)c1ccc(CNC(=O)COC(=O)c2ccccc2-c2ccccc2)cc1 — lower, -6.61%
- CN(C)S(=O)(=O)c1cccc(-c2nnc(-c3ccccc3)o2)c1 — higher, 9.85%
- O=C(c1cc2cc(Br)cc(Br)c2oc1=O)N1CCOCC1 — lower, 1.79%
- C=C(C)CSc1nc2nc(C)cc(C)n2n1 — lower, 5.03%
- Cc1ccc(NS(=O)(=O)c2cccc(C(=O)N3CCN(c4ncccn4)CC3)c2)cc1 — higher, 9.78%
- CCCCNC(=O)c1onc(CSc2ccccc2F)c1C(=O)O — higher, 14.7%
- CN(C)CCCNC1CS(=O)(=O)CC1O.Cl (stereo not drawn) — higher, 7.14%
- O=C(O)c1cc2c(s1)-c1ccccc1CC2 — lower, -9.58%
- C=CCNC(=O)CSc1nc2ccccc2c(=O)n1CCc1ccc(OC)c(OC)c1 — lower, 0.494%
- Cc1cc(CNC(=O)c2cccc([N+](=O)[O-])c2)c2ccccc2n1 — lower, 5.45%
- COc1cccc(NC(=O)CN2CCN(C(=O)c3ccco3)CC2)c1 — higher, 11.1%
- O=C(CN1CCOCC1)NNc1nc(-c2ccccc2)c2cc(Br)ccc2n1 — higher, 7.75%
- Cc1ccc(S(=O)(=O)Nc2ccc3nc(N)sc3c2)cc1 — lower, -2.39%
- Cc1c(NC(=S)N/C(=N/S(=O)(=O)c2ccccc2)c2ccccc2)c(=O)n(-c2ccccc2)n1C — higher, 13.3%
- CCOc1ccc(-c2nnc(-c3cccs3)o2)cc1 — higher, 12.9%
- Cn1c(Sc2ccc(C(=O)O)cc2[N+](=O)[O-])nnc1-c1ccccc1 — lower, -14.3%
- O=C(c1cccc(S(=O)(=O)N2CCOCC2)c1)N1CCOCC1 — higher, 21.7%
- O=c1[nH]c(O)c(C=NC2CCCCC2)c(=O)[nH]1 — higher, 12.3%
- COc1ccc(NS(=O)(=O)c2cccc(C(=O)Nc3cccc(C(=O)O)c3)c2)cc1 — higher, 15.8%
- CCn1cc(C(=O)N2CCOCC2)c2ccccc21 — higher, 7.17%
- COc1ccc(CNCc2c(C(=O)N(C)C)nc3ccc(Cl)cn23)c(OC)c1 — lower, 4.86%
- Cc1cccc(C)c1NC1=NC(C)(C)N=C(N)N1 — higher, 14.9%
- Cc1ccc(C2(O)CCN3CCCCC32)cc1 (stereo not drawn) — higher, 14.3%
- CC(C)(C)NC(=O)CN(C(=O)Cn1nnc(-c2ccccc2F)n1)c1cccc2c1CCCC2 — higher, 6.4%
- CC(=O)c1cccc(N2C(=NC(=O)C(C)C)SC3CS(=O)(=O)CC32)c1 (stereo not drawn) — higher, 13.5%
- COC(=O)c1ccc(N2CCN(C(C)=O)CC2)c(NC(=O)COc2ccccc2C)c1 — higher, 8.44%
- CC1CCCN(c2nc3c(c(=O)n(C)c(=O)n3C)n2CCSc2nc3ccccc3o2)C1 (stereo not drawn) — higher, 10.5%
- COc1ccc(NC(=S)Nc2cccc(C)n2)cc1 — lower, 2.71%
- COc1ccccc1NC(=O)c1ccccc1-c1nc(-c2ccccc2OC)no1 — lower, 0.603%
- COc1ccc(Cl)cc1NC(=S)NNC(=O)CC(C)C — lower, 4.19%
- O=c1oc2ccccc2c2c1ncn2C1CCCCC1 — lower, -24.8%
- COc1ccc(CN(C(C)=O)c2ccccc2C(=O)O)cc1 — lower, 4.21%
